# Experimental data from PubChem BioAssay AID504466 (National Center for Advancing Translational Sciences (NCATS), 2011).
# The whole screen tested about 330,000 compounds, of which about 4,200 (1.3%) were called active. Inconclusive means that the source gave no clear call. Such entries were picked first, then a sample of the others. Calls follow the shape of the dose curve; as a rule, active = well fitted activation curve with a large enough effect; inconclusive = small, poorly fitted or top-dose-only effect; inactive = no such curve, though single readings can be large or run the other way. Potencies beside an inconclusive call are fits to weak or partial responses and may not hold up.
# Assay: qHTS screen for small molecules that induce genotoxicity in human embryonic kidney (HEK293T) cells expressing luciferase-tagged ELG1; also: nearly all actives have a fitted effect of over 60% in size; as to activity change, positive = activation: % of control where 0% means no effect
# Conditions: HEK293T ELG1-luciferase reporter, luminescence, 16 h; series mostly up to 46 µM; activity change, positive = activation: at the top concentration
# How it was run: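 ELG1-luciferase HEK293T cells, 2,000/well; compound pinned in; 16 hr, 37 °C, 5% CO2; ONE-Glo, 30 min RT; luminescence on CCD imager.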
# Potency is read from the fitted curve at half-maximal effect; tags tell the direction and shape of the fitted curve.
Compound,Potency,"activity change, positive = activation"
CCC(=O)N1CCCc2cc(S(=O)(=O)N3CCN(C4CCCCC4)CC3)ccc21,"inconclusive: 20.6 µM [activator, single point]",–
N/C(Cc1cccs1)=N\OC(=O)COc1ccc(Br)cc1Cl,"inconclusive: 14.6 µM [activator, partial curve]",–
CS(=O)(=O)N1CCN(c2nc(-c3ccccc3)cs2)CC1,"inconclusive: 25.9 µM [activator, partial curve, poor fit]",–
CC(C)(C)C(=O)Nc1ccc(C(=O)OC2CCCCC2)cc1,"inconclusive: 2.59 µM [activator, full curve]",–
O=C(OCc1ccc(Br)cc1)c1cccc(-c2nnc(-c3ccccc3)o2)c1,"inconclusive: 4.11 µM [activator, full curve, poor fit]",–
O=C(Nc1nnc(C2CC2)s1)c1cc2ccccc2o1,"inconclusive: 7.3 µM [activator, partial curve]",–
COc1ccc(CCNC(=O)C(=O)NCc2ccc(Cl)cc2)cc1OC,"inconclusive: 1.16 µM [activator, single point]",–
Cc1cc2c(cc1C)N(CC(=O)N1CCCC1)C(=O)CC(c1ccccc1)=N2,"inconclusive: 11.2 µM [activator, partial curve, poor fit]",–
COCC(C)n1c(C)cc(C(=O)CSc2nnnn2C2CCCC2)c1C (stereo not given),"inconclusive: 9.2 µM [activator, partial curve]",–
Cc1ccc(Oc2ncnc3sccc23)cc1,"inconclusive: 16.4 µM [activator, partial curve, poor fit]",–
O=C(CC(Nc1ccccc1)c1ccccc1)C1CC1 (stereo not given),–,inactive: -2.85%
COc1ccc2c(c1OC)C(=O)N1c3ccccc3COC21 (stereo not given),"inconclusive: 8.2 µM [activator, partial curve]",–
COc1ccc(N2CCN(C(C)C(=O)Nc3nnc(C)s3)CC2)cc1 (stereo not given),–,inactive: 3.38%
Cc1cc(C(=O)COC(=O)c2ccc[nH]c2=O)c(C)n1-c1ccccc1F,"inconclusive: 0.73 µM [activator, full curve]",–
CCN1CCN(c2nc3c(c(=O)[nH]c(=O)n3C)n2Cc2ccccc2)CC1,–,inactive: 6.59%
CC(=O)Nc1ccc(C(=O)COC(=O)C2CC2C)c(F)c1 (stereo not given),"inconclusive: 18.3 µM [activator, partial curve]",–
CC(C)Nc1ccc(-n2nc3ccccc3[n+]2[O-])cc1,"inconclusive: 0.82 µM [activator, full curve]",–
O=C(Nc1ccc2nsnc2c1)N1CCCCCC1,"inconclusive: 14.6 µM [activator, partial curve]",–
CC(C)(C)c1ccc(-c2cc(-c3ccccc3O)[nH]n2)cc1,active: 0.58 µM,–
N#CCSc1nccc(/C=C/c2ccccc2)n1,"inconclusive: 20.6 µM [activator, partial curve, poor fit]",–
CCc1cc(C(=O)Cc2nc3ccccc3[nH]2)c(O)cc1O,"inconclusive: 12.6 µM [activator, single point]",–
O=C(c1cc(COc2c(F)cccc2F)on1)N1CCCCCC1,"inconclusive: 8.2 µM [activator, single point]",–
COCCn1c(C)cc(C(=O)CSc2ccc(NC(C)=O)cc2)c1C,"inconclusive: 20.6 µM [activator, partial curve]",–
CNC(=O)c1c(NC(=O)CCS(=O)(=O)c2ccc(Cl)cc2)sc2c1CCN(C(=O)OC)C2,"inconclusive: 32.6 µM [activator, partial curve, poor fit]",–

Compound,Potency,"activity change, positive = activation"
O=C(Nc1ccccc1)Nc1ccccc1Br,"inconclusive: 13 µM [activator, partial curve, poor fit]",–
CC(/C=N/N1CCN(c2ccccc2)CC1)=C\c1ccco1,"inconclusive: 7.31 µM [activator, partial curve, poor fit]",–
COc1cc(CNc2ccc3c(c2)CCC3)cc(OC)c1O,"inconclusive: 32.6 µM [activator, partial curve, poor fit]",–
Cc1nnc(NC(=O)c2oc3ccccc3c2C)s1,active: 18.3 µM,–
O=C(/C=C\Nc1ccc2c(c1)OCO2)c1ccc(Cl)s1,active: 0.82 µM,–
CCCNc1ncnc2c1cnn2-c1ccc(OC)cc1,–,inactive: 2.25%
O=C(Nc1cccc(C(=O)Nc2ccc(Br)cc2)c1)c1ccccc1,"inconclusive: 29.1 µM [activator, partial curve, poor fit]",–
C=CCN=c1scc(-c2ccco2)n1/N=C/c1ccc(O)c(O)c1O,"inconclusive: 18.3 µM [activator, partial curve]",–
O=C(Nc1ccc(Nc2ccccc2)cc1)c1ccccc1F,"inconclusive: 18.3 µM [activator, partial curve, poor fit]",–
O=C(CSc1nnc(-c2cccnc2)o1)Nc1ccccc1F,"inconclusive: 9.2 µM [activator, partial curve]",–
CCCNC(=O)Cn1nc(C(F)(F)F)cc1C,–,inactive: -2.11%
COc1ccccc1N1CCN(S(=O)(=O)CCNC(=O)C2CCCCC2)CC1,–,inactive: -19.5%
O=C(/C=C/c1ccc(Br)cc1)c1ccc(NC(=O)c2ccco2)cc1,–,inactive: 1.19%
Cc1ccc(C(=O)NNC(=O)CSc2nnc3c(n2)[nH]c2ccc(F)cc23)cc1,"inconclusive: 29.1 µM [activator, single point]",–
CSc1ccccc1OCc1cc(C(=O)NC(C)c2cnn(C)c2)no1 (stereo not given),"inconclusive: 20.6 µM [activator, single point]",–
c1ccc(N/N=C(\Cc2nc3ccccc3[nH]2)c2ccccc2)cc1,"inconclusive: 18.4 µM [activator, partial curve]",–
COc1ccc(/C=C(\C#N)C(=O)OCC(=O)Nc2ccc(-c3nc4ccc(C)cc4s3)cc2)cc1,active: 0.651 µM,–
CN(Cc1ccco1)C(=O)c1ccc(CNS(=O)(=O)c2ccc3c(c2)C(C)(C)C(=O)N3C)cc1,–,inactive: 1.86%
Cc1cccc(NC(=O)c2cc(S(=O)(=O)N(C)c3ccc(F)cc3)ccc2Cl)n1,"inconclusive: 0.92 µM [activator, partial curve, poor fit]",–
O=C(NC(=S)Nc1ccccc1)c1cccs1,"inconclusive: 5.17 µM [activator, single point]",–
Cn1cc(C(=O)C(=O)NCCc2ccccc2)c2ccccc21,"inconclusive: 20.6 µM [activator, partial curve, poor fit]",–
COc1ccc(OCC(=O)Nc2nccs2)cc1,"inconclusive: 1.3 µM [activator, partial curve]",–
Cc1cccc(N(C)S(=O)(=O)c2ccc(-c3cnc(C4CC4)o3)cc2)c1,"inconclusive: 1.46 µM [activator, partial curve]",–
O=C(CSc1ccc2ccccc2n1)c1ccc2c(c1)OCO2,active: 20.6 µM,–

Compound,Potency,"activity change, positive = activation"
CCOC(=O)Nc1ccc(Oc2ccccc2)cc1,active: 18.4 µM,–
C=CCn1c(=O)c(C(=O)Nc2ccccc2S(N)(=O)=O)c(O)c2ccccc21,"inconclusive: 20.6 µM [activator, partial curve]",–
CC(C)c1ccc(/C=N/NC(=O)c2cccc(Cl)c2)cc1,active: 20.6 µM,–
O=C(CSc1nnc(CNC(=O)c2ccccc2)o1)NCc1ccco1,–,inactive: 2.78%
O=C(Nc1ccc2[nH]c(=S)sc2c1)c1ccccc1,"inconclusive: 3.26 µM [activator, partial curve, poor fit]",–
O=S(=O)(NCC1CCCO1)c1ccc(S(=O)(=O)N2CCc3ccccc3C2)cc1 (stereo not given),–,inactive: 0.823%
Cc1cc(C)c(C#N)c(SCc2nc3ccccc3c(=O)[nH]2)n1,active: 8.2 µM,–
CCS(=O)(=O)Nc1cccc(-c2cc(-c3ccccc3)c3cc(C)ccc3n2)c1,–,inactive: -6.31%
Cc1ccc(O)c(NC(=S)NC(=O)/C=C/c2ccccc2)c1,–,inactive: -0.881%
CC1CCC(=O)N(CCSc2ccccc2)CC1 (stereo not given),"inconclusive: 2.59 µM [activator, full curve]",–
COC(=O)c1ccc(OCC(O)Cn2nnc3ccccc32)cc1 (stereo not given),"inconclusive: 23.1 µM [activator, single point]",–
Cc1ccc2c(Cl)c(C(=O)NCCc3ccccc3)sc2c1,"inconclusive: 20.6 µM [activator, partial curve]",–
O=S(=O)(NCCc1cn2ccccc2n1)c1cccs1,"inconclusive: 23.1 µM [activator, partial curve]",–
COC(=O)CCC(=O)c1oc2ccc(Br)cc2c1N,"inconclusive: 14.6 µM [activator, partial curve]",–
O=C(Nc1cccc(Cl)c1)c1ccc2c(=O)n3c(nc2c1)CCCCC3,"inconclusive: 2.06 µM [activator, partial curve]",–
Cc1cc(-c2ccccc2)n(-c2ccc(C(=O)N3CCN(c4ncccn4)CC3)cc2)n1,–,inactive: -19.8%
COc1ccc(C2Nc3ccccc3C(=O)N2c2ccc(C)cc2)cc1Cn1nnc2ccccc21 (stereo not given),"inconclusive: 18.4 µM [activator, partial curve, poor fit]",–
CSc1cccc(NC(=O)CSc2nc3ccccc3o2)c1,"inconclusive: 20.6 µM [activator, partial curve, poor fit]",–
COc1cc(OC)cc(C(=O)NNC(=O)c2cc3c(s2)CCCC3)c1,"inconclusive: 23.1 µM [activator, partial curve, poor fit]",–
Cc1cc(C(=O)CSc2ccccc2)cc(C)c1O,"inconclusive: 14.6 µM [activator, partial curve]",–
O=C(N/N=C/c1ccc(Cl)cc1)Nc1ccccc1,"inconclusive: 16.4 µM [activator, partial curve, poor fit]",–
O=C(NC1=NCCS1)c1ccc(-c2ccc(Cl)cc2)o1,active: 2.06 µM,–
